Source: PubChem BioAssay AID485294 (National Center for Advancing Translational Sciences (NCATS), 2010)
In all, about 370,000 compounds went through this assay and about 150 (0.041%) were called active. The inconclusive results got no clear call from the source; some entries with a clear call stand among them for comparison. The call rests on the fitted dose curve; in most records, active means well fitted inhibition curve with a large enough effect; inconclusive means small, poorly fitted or top-dose-only effect; inactive means flat fitted curve, though single readings scatter. Potencies of inconclusive entries are left out as doubtful fits.

Target: Beta-lactamase (Escherichia coli (strain K12)) (UniProt P00811)
Test: qHTS Inhibitors of AmpC Beta-Lactamase (assay with detergent); further: nearly all actives have a fitted effect of over 25% in size;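 on activity change, negative = inhibition: 0% = no-compound wells and -100% = no-enzyme wells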
Settings: AmpC hydrolysis of nitrocefin, absorbance 480 nm, 0.01% Triton; activity change, negative = inhibition: at 114 µM (top of the series)
Summary of the method: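 AmpC (5.3 nM in the dispensed reagent) in 20 mM phosphate pH 7.0 with 0.01% (detergent screen) or 0.0001% Triton X-100 was preincubated with compounds for 15 min at room temperature. Nitrocefin was then added from an 800 uM solution, and hydrolysis was followed at 480 nm.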
Potency means the concentration at half of the fitted maximal effect; tags describe the fitted curve by direction and shape.

Chain of UniProt P00811 (P00811 whole entry, looked up): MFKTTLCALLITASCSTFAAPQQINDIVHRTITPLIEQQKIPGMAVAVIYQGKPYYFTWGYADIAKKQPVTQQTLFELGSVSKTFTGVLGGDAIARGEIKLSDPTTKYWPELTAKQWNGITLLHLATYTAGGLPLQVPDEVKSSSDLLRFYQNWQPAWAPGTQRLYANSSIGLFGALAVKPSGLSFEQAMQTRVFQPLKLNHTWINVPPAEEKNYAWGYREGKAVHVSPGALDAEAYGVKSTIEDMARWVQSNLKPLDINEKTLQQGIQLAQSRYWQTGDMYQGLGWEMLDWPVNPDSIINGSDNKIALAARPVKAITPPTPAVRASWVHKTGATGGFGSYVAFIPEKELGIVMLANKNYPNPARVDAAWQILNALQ

Row | Compound | Potency | activity change, negative = inhibition
1 | COc1ccc(NC(=O)C2CCCO2)cc1Cl (stereo not given) | inconclusive [inhibitor, full curve, poor fit] | 
2 | Cc1ccc(C)c(CNC(=O)c2sc3ncnc(N(C)C4CCCCC4)c3c2C)c1 |  | inactive: -5.7%
3 | CC(C)(C)OC(=O)NCCCCCNC(=O)c1[nH]cnc1C(=O)NC1CCN(C(=O)OC(C)(C)C)CC1 |  | inactive: 2.72%
4 | CCOC(=O)NC(=O)C(=CNc1ccc(C)cc1)C(=O)NC(=O)OCC | inconclusive [inhibitor, partial curve] | 
5 | CC(=O)/C=N/Nc1ccccc1 | inconclusive [inhibitor, full curve, poor fit] | 
6 | O=C(CCCC(=O)N1CCCc2ccccc21)N1CCCc2ccccc21 | inconclusive [inhibitor, full curve, poor fit] | 
7 | COC(=O)c1ccc(CN2CCSC2=N)cc1 | inconclusive [inhibitor, full curve] | 
8 | O=C(O)c1cccc(COCC(F)(F)C(F)F)c1 | inconclusive [inhibitor, full curve] | 
9 | COc1cccc(-c2csc(N3CCN(C(=S)NCC(C)C)CC3)n2)c1 | inconclusive [inhibitor, partial curve, poor fit] | 
10 | Nc1nc(N2CCCCC2)nc(N(c2ccccc2)c2ccccc2)n1 | inconclusive [inhibitor, full curve] | 
11 | CC1(C)Cc2c(c(N3CCOCC3)nc3snc(NC(=O)c4ccccc4)c23)CO1 |  | inactive: -7.34%
12 | N#CC1=C2SCN(Cc3ccccc3)CN2C(=O)CC1c1ccccc1F (stereo not given) | inconclusive [inhibitor, full curve, poor fit] | 
13 | COc1ccc(-c2nnc(SCC(=O)N3CCC(Cc4ccccc4)CC3)o2)cc1OC | inconclusive [inhibitor, full curve, poor fit] | 
14 | CCOc1cc(C(=O)NC(C)COC)cc(OCC)c1OCC (stereo not given) | inconclusive [inhibitor, full curve, poor fit] | 
15 | Cc1ccccc1CNC(=O)C(=O)NCC1CCCN1S(=O)(=O)c1ccccc1 (stereo not given) | inconclusive [inhibitor, full curve, poor fit] | 
16 | O=Cc1cn(CC(=O)N2CCc3ccccc32)c2ccccc12 | inconclusive [inhibitor, single point] | 
17 | COc1cccc(NC(=O)COc2cc(O)c3c(c2)OC(C)(C)CC3=O)c1 | inconclusive [inhibitor, full curve, poor fit] | 
18 | CSc1nc(N)nc(SCC(=O)Nc2ccc(Cl)cc2)c1C#N |  | inactive: -1.51%
19 | CC1=C(C#N)C(c2ccc(O)cc2)C2=C(CCCC2=O)N1 (stereo not given) |  | inactive: -0.0569%
20 | Cc1ccc(S(=O)(=O)N2CCN(C(=O)C3CC3C)CC2)c(C)c1 (stereo not given) | inconclusive [inhibitor, full curve, poor fit] | 
21 | Cc1cc(C)cc(N(CCC#N)C(=O)CSC2=Nc3ccccc3C3CC=NN23)c1 (stereo not given) | inconclusive [inhibitor, full curve, poor fit] | 
22 | O=C(NCCc1csc(-c2cccnc2)n1)c1cccc2ccccc12 | inconclusive [inhibitor, full curve, poor fit] | 

Row | Compound | Potency | activity change, negative = inhibition
23 | CCOc1ccc(S(=O)(=O)N2CCOCC2)cc1NC(=O)C1CCC1 | inconclusive [inhibitor, full curve, poor fit] | 
24 | Cc1ccc(-c2cc3nc(-c4ccc(Br)cc4)cc(N)n3n2)cc1 | inconclusive [inhibitor, full curve, poor fit] | 
25 | Cc1ccc2c(c1)CNc1ccccc1O2 | inconclusive [inhibitor, full curve, poor fit] | 
26 | Cc1c(NC(=S)NC(=O)c2cccc(Cl)c2)c(=O)n(-c2ccccc2)n1C |  | inactive: -8.45%
27 | COc1cccc(-c2noc(COc3ccccc3Cl)n2)c1 |  | inactive: 0.706%
28 | Cc1ccc(N=Cc2c(O)ccc3ccccc23)cc1F | inconclusive [inhibitor, partial curve, poor fit] | 
29 | COc1ccc(C2CC(=O)OC3=C2C(=O)CC(C)(C)C3)c(OC)c1 (stereo not given) | inconclusive [inhibitor, full curve, poor fit] | 
30 | COc1ccc([C@]23Cc4ccccc4C(O2)C2=C(CCCC2=O)O3)cc1 |  | inactive: -5.69% [at 22.9 µM]
31 | O=C(CCNS(=O)(=O)c1ccc(Br)s1)N1CCN(c2ccccc2)CC1 | inconclusive [inhibitor, partial curve, poor fit] | 
32 | Cc1ccc(NC(=O)N2CCC(C(=O)NCC(C)C)CC2)cc1 | inconclusive [inhibitor, partial curve] | 
33 | CCCc1[nH]n(-c2nc3ccccc3s2)c(=O)c1C=NCCCOC |  | inactive: -1.94%
34 | Clc1ccc(OCCn2ccnc2)c(Br)c1 | inconclusive [inhibitor, full curve, poor fit] | 
35 | CC(C)c1nnc(NC(=O)c2cc3ccccc3o2)s1 | inconclusive [inhibitor, partial curve, poor fit] | 
36 | Cc1ccc(N2C(=O)c3ccccc3C2(O)c2ncc[nH]2)cc1 (stereo not given) | inconclusive [inhibitor, partial curve, poor fit] | 
37 | O=S(=O)(c1cccc2cccnc12)N1CCN(Cc2ccc3c(c2)OCO3)CC1 | inconclusive [inhibitor, full curve, poor fit] | 
38 | C=C(C)Cn1c(SCC(=O)N/N=C/c2c(O)ccc3ccccc23)nc2ccccc2c1=O | inconclusive [inhibitor, full curve, poor fit] | 
39 | COc1cc(/C=N/OCC(=O)NC2CCS(=O)(=O)C2)ccc1OC(F)F (stereo not given) | inconclusive [inhibitor, partial curve] | 
40 | CCCOc1ccc(C(F)(F)F)cc1NS(=O)(=O)c1ccc(Cl)nc1 | inconclusive [inhibitor, partial curve, poor fit] | 
41 | COc1cc(/C=N/NC(=O)c2cc(-c3ccccc3OC(C)C)nc3ccccc23)ccc1O | inconclusive [inhibitor, partial curve, poor fit] | 
42 | O=C(N/N=C/c1coc2ccccc2c1=O)c1ccncc1 | inconclusive [inhibitor, full curve, poor fit] | 
43 | CC(=O)c1cccc(NC(=O)N2CCCC2C(=O)NCc2ccc(F)cc2)c1 (stereo not given) | inconclusive [inhibitor, full curve, poor fit] | 
44 | COc1ccccc1NC(=O)C(C)OC(=O)Cn1cnc2c1c(=O)n(C)c(=O)n2C (stereo not given) | inconclusive [inhibitor, full curve, poor fit] | 

Row | Compound | Potency | activity change, negative = inhibition
45 | CC(C)Cn1c(N)c(C(=O)CSc2cc(Cl)ccc2Cl)c(=O)n(C)c1=O | inconclusive [inhibitor, partial curve] | 
46 | CC(=O)Nc1ccc(N(C(=O)c2ccccn2)C(C(=O)NC2CCCCC2)c2ccc(F)cc2)cc1 (stereo not given) |  | inactive: -9.04%
47 | O=C(CN(c1cccc(C(F)(F)F)c1)S(=O)(=O)c1ccc(Cl)c([N+](=O)[O-])c1)NCc1ccccc1Cl | inconclusive [inhibitor, full curve, poor fit] | 
48 | CCCn1nc(NS(=O)(=O)c2ccccc2)c2cc3ccccc3nc21 | inconclusive [inhibitor, partial curve, poor fit] | 
49 | Cc1cccc(NS(=O)(=O)c2cc(C(=O)N3CCN(C)CC3)ccc2C)c1 |  | inactive: -3.94%
50 | CCC1=NN(C(=O)C(=O)Nc2ccc(Br)cc2)C(O)(C(F)(F)F)C1 (stereo not given) | inconclusive [inhibitor, single point] | 
51 | O=C(c1ccco1)N1CCN(Cc2cc(=O)oc3cc(O)ccc23)CC1 |  | inactive: -15%
52 | Cc1ccc(S(=O)(=O)N2CCC(=O)N(CCOC(=O)Nc3cc(C)cc(C)c3)CC2)cc1 | inconclusive [inhibitor, partial curve, poor fit] | 
53 | CCCC(=O)Nc1nnc(CCc2ccccc2)s1 | inconclusive [inhibitor, partial curve] | 
54 | Cc1ccc2nc(-c3cccc(NC(=O)c4cccc5ccccc45)c3)oc2c1 |  | inactive: 0.182%
55 | Cn1c(C(=O)N2CCN(c3ccc(F)cc3)CC2)cc2ccccc21 | inconclusive [inhibitor, full curve, poor fit] | 
56 | COC(=O)C(C)NC(=O)c1cn(-c2ccccc2OC)c(=O)c2ccccc12 (stereo not given) |  | inactive: -3.04%
57 | CC(C)(C)c1cc(NS(=O)(=O)c2ccc3c(c2)OCCO3)on1 | inconclusive [inhibitor, single point] | 
58 | O=C(Cc1c(C(=O)O)[nH]c2ccccc12)NCCN1CCN(c2ccccc2F)CC1 | inconclusive [inhibitor, partial curve] | 
59 | O=C(CCCOc1ccc(Br)cc1)Nc1ccc(S(=O)(=O)N2CCOCC2)cc1 |  | inactive: -18.9%
60 | CCOc1ccccc1NC(=O)N1CCC(n2nnc3cc(C)ccc32)CC1 | inconclusive [inhibitor, full curve, poor fit] | 
61 | COCCNC(=S)NN=C1CCC(c2ccccc2)CC1 (stereo not given) |  | inactive: -10.4%
62 | Fc1ccc(Oc2ncccn2)c(F)c1 | inconclusive [inhibitor, single point] | 
63 | COc1ccc(OCC(=O)NNc2c3ccccc3nc3ccccc23)cc1 | inconclusive [inhibitor, full curve, poor fit] | 
64 | CN(C)c1ccc(N2C(=NC(=O)CC3CCCCC3)SC3CS(=O)(=O)CC32)cc1 (stereo not given) |  | inactive: -0.218%
65 | CCOC(=O)N1CCC(NC(=O)c2cc3cc4cc(OC)ccc4nc3o2)CC1 | inconclusive [inhibitor, single point] | 
